The source gives no read counts; variants with many changes may rest on few reads.
B1: CPEB3 Ribozyme (parent)
chain: UAACAGGGGGCCACAGCAGAAGCGUUCACGUCGCAGCCCCUGUCAGAUUCUGGUGAAUCUGCGAAUUCUGCUGUAUAUCUC

Variants of: B1
Experiment: self-cleavage, relative activity (ratio to wild type); higher = more cleavage; in vitro, sequencing
Procedure, shortened: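 Relative activity was defined as the cleaved/total read fraction for a variant divided by the same fraction for the unmutated ribozyme. CPEB3 self-cleaving ribozyme libraries were made by rounds of error-prone PCR, barcoded, and transcribed in vitro with T7 RNA polymerase for 5 hours at 37°C, and cleavage ran through transcription plus a 15 min DNase I step before EDTA. Illumina sequencing of template-switched reverse transcripts gave the reads, and DNA sequencing mapped the barcodes. Averages come from three batches, using variants with at least 5 reads.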

Variant | self-cleavage
U26C A28G C29A A35G U60C A64G | 0.1
U26C A28G C68A | 0.06
U26C A28G G30A A77U | 0.2
U26C A28G G52C | 0.43
U26C A28G G53U U69C | 0.13
U26C A28G U31A A64G U80C | 0.36
U26C A28G U31C G42A A47G A56G | 0.12
U26C A28G U31C U49C | 0.22
U26C A28G U41A A64U | 0.15
U26C A28G U41C U43C A47G | 0.36
U26C A28G U41C U72C | 0.06
U26C A28G U43A | 0.3
U26C A28G U43C U72A | 0.3
U26C A28G U49C U51C A56G | 0.22
U26C A28G U51A U72C | 0.14
U26C A28G U51C U72A A75C | 0.08
U26C A28G U66C U76A | 0.16
U26C A28G U67A | 0.22
U26C A28G U67C U72C | 0.34
U26C A28G U69C U80C | 0.1
U26C A28G U74C | 0.6
U26C A28U A35G G36C U43C U72A | 0.09
U26C A28U A35U C39U | 0.1
U26C A28U A35U U54A | 0.2

Variant | self-cleavage
U26C A28U A45G A64U U74C | 0.08
U26C A28U A45G G63U | 0.13
U26C A28U A45G U54C U67C | 0.05
U26C A28U A47G | 0.15
U26C A28U A65G | 0.15
U26C A28U C32U | 0.13
U26C A28U C34A A47G | 0.12
U26C A28U C50U | 0.11
U26C A28U G33A U60G C68U | 0.19
U26C A28U G33C G61A | 0.12
U26C A28U G33U U74C | 0.25
U26C A28U G36C | 0.07
U26C A28U G63A U76A | 0.33
U26C A28U U41A U67C | 0.08
U26C A28U U41C U67C U69A | 0.07
U26C A28U U43C A64G U66C U69C | 0.26
U26C A28U U49C G55A | 0.06
U26C A28U U49C U80C | 0.21
U26C A28U U60C U72C | 0.11
U26C A28U U60C U80A | 0.36
U26C A28U U66C | 0.07
U26C A28U U74C | 0.29
U26C A35C A45C | 0.07
U26C A35C A45G | 0.15

Variant | self-cleavage
U26C A35C U41C A56G | 0.42
U26C A35C U43C U58C A64U | 0.34
U26C A35C U48C A65U | 0.08
U26C A35C U54A | 0.22
U26C A35G A45C | 0.4
U26C A35G A45C A47U | 0.15
U26C A35G A45G U72C | 0.77
U26C A35G A47G U74A | 1.2
U26C A35G A75U | 1.14
U26C A35G C37A U41C U60A U67A U80C | 0.16
U26C A35G C38A U78C | 0.15
U26C A35G C38U U60C U66C U72A A77G | 0.34
U26C A35G C39U U72G U76C | 1.11
U26C A35G C40U | 0.67
U26C A35G G36A | 0.31
U26C A35G G55A U74C | 1.14
U26C A35G U41A A57U | 0.1
U26C A35G U41A U74C | 0.11
U26C A35G U41C A64G A77G | 0.79
U26C A35G U41C U48C U72C U74A | 0.46
U26C A35G U43A U51A | 0.23
U26C A35G U43C U60C A65G U67C U72A | 0.24
U26C A35G U43C U72C A77G | 1.19
U26C A35G U43C U78C | 1.28

Variant | self-cleavage
U26C A35G U48C | 0.91
U26C A35G U48C A75G | 0.94
U26C A35G U48C A77G | 0.85
U26C A35G U49C U54C U69A C71U | 0.11
U26C A35G U54C U58C U78C | 0.46
U26C A35G U60C U72C | 0.63
U26C A35G U74C U78C | 1.23
U26C A35U A45C U54C A65G A77G | 0.03
U26C A35U A47G | 0.23
U26C A35U A47G U48C C59U | 0.15
U26C A35U C44U | 0.17
U26C A35U U41A | 0.33
U26C A35U U41C U43A A45G | 0.09
U26C A35U U43A A45G A47G A64G | 0.2
U26C A35U U43A A56C A75G | 0.07
U26C A35U U43A A65G U72A | 0.05
U26C A35U U43A U51A | 0.13
U26C A35U U43C A56G A75G U76C | 0.06
U26C A35U U48C A56U A64U | 0.14
U26C A35U U48C U72C | 0.07
U26C A35U U49C C50A U74C | 0.38
U26C A35U U49C U69A | 0.09
U26C A35U U51C U58C U69A | 0.07
U26C A35U U58A | 0.17

Variant | self-cleavage
U26C A35U U60A U76C | 0.13
U26C A35U U60C | 0.13
U26C A35U U72G A77U | 0.14
U26C A35U U78C | 0.15
U26C A45C A56G | 0.07
U26C A45C A64U | 0.07
U26C A45C U49A A56G A65G | 0.06
U26C A45C U49A U58C | 0.19
U26C A45C U72A | 0.29
U26C A45C U74G | 0.38
U26C A45G A56G | 0.1
U26C A45G A65G | 0.16
U26C A45G G73C | 0.61
U26C A45G U48C U49A U72C | 0.11
U26C A45G U49C A64U | 0.08
U26C A45G U49C U60C | 0.31
U26C A45G U49C U60C C81U | 0.27
U26C A45G U51A A57G | 0.26
U26C A45G U51A A64G U78C | 0.09
U26C A45G U51C U54C A56G | 0.24
U26C A45G U51C U60A U67A A75C | 0.27
U26C A45G U58A | 0.17
U26C A45G U60A U72C | 0.42
U26C A45G U66C U69C U72A U78A | 0.06

Variant | self-cleavage
U26C A45G U67A | 0.41
U26C A45G U67C | 0.05
U26C A45U A65U U74C | 0.1
U26C A45U A77C | 0.22
U26C A45U C68A U80C | 0.09
U26C A45U U48C U72C | 0.09
U26C A45U U51A A57C | 0.05
U26C A45U U51C | 0.28
U26C A45U U54A C62U | 0.11
U26C A45U U54C A56G U78C | 0.34
U26C A45U U60A U72C | 0.5
U26C A45U U60C | 0.09
U26C A45U U66C C79U | 0.15
U26C A45U U69A | 0.09
U26C A45U U69C | 0.1
U26C A45U U69C G70U | 0.24
U26C A45U U72C | 0.15
U26C A45U U76C A77U | 0.08
U26C A47C U51C | 0.35
U26C A47C U54C | 0.21
U26C A47C U69C U76A | 0.13
U26C A47G A56U U76C | 0.16
U26C A47G C68U U74C | 0.55
U26C A47G U48A U49C U69A U76C | 0.06

Variant | self-cleavage
U26C A47G U48C A64U | 0.24
U26C A47G U49C U51C A57U | 0.21
U26C A47G U49C U69A | 0.13
U26C A47G U51C U76C | 0.17
U26C A47G U54C U58C | 0.37
U26C A47G U58C C68U U74C | 0.47
U26C A47G U60C U76C | 0.14
U26C A47G U80A | 0.41
U26C A47U A65G U78C | 0.14
U26C A47U U58A | 0.52
U26C A56C G73A | 0.46
U26C A56G A64C | 0.12
U26C A56G A64U U66C | 0.14
U26C A56G A77G | 0.25
U26C A56G A77U | 0.26
U26C A56G C68A U78C | 0.19
U26C A56G C81U | 0.6
U26C A56G G61A U72C | 0.1
U26C A56G G70C | 0.12
U26C A56G U60A U72C | 0
U26C A56G U60C | 0.26
U26C A56G U60G | 0.24
U26C A56G U60G U72C C79A | 0.12

From the RNAGym collection of RNA variant scans (doi:10.1093/nar/gkz1192)
